PMC2954335

Target: maCTLA-4 (mammalian-expressed, deglycosylated human CTLA-4 homodimer, extracellular domain, amino acids 1-126) (human) (UniProt P16410)
Experiment: SEC; gel filtration of purified maCTLA-4; nonreducing SDS-PAGE of the main peak, around 25 kDa; disulfide-bonded homodimer

maCTLA-4 (mammalian-expressed, deglycosylated human CTLA-4 homodimer, extracellular domain, […]) (a stretch of the chain, chain not printed) (domain or fragment; interchain disulfide at cysteine 122; deglycosylated with endo Hf; interchain disulfide at cysteine 122; deglycosylated with endo Hf; other documents disagree on this pair)
stoichiometry N: 2
